Source: the supplement of paper PMC10126150
Sequences with one replicate were seen in a single cluster, so their values are uncertain.

Test system: ATP
Test: switch fluorescence ratio, 500 uM ATP over buffer (Cy3 cluster intensity, sum of 5 cycles each) (fold (ratio)); higher = stronger signal-on switching upon ATP binding; sequences stand for … in TCGTCGGCAGCGTCAGATGTGTATAAGAGACAGTTTTTTTTTTTTTTTTTTTTTTTTT…TC
Details: aptamer strand: ATP DNA aptamer (quencher-CACCTGGGGGAGTATTGCGGAGGAAGG + anchor), 100 nM annealed; ATP concentration: 500 uM; one replicate
In short: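 For every switch-domain sequence, the fluorescence ratio is the mean of per-cluster values, each being summed target-cycle Cy3 intensity over summed buffer-cycle Cy3 intensity. Clusters outside 100-1000 RFU were excluded. On a modified Illumina MiSeq flow-cell, the Cy3-labelled switching-strand clusters were annealed to 100 nM quencher-labelled ATP aptamer, imaged in selection buffer and then after 15 min with 500 uM ATP at 22 °C. Five such cycles were run, with NaOH stripping and re-annealing between them.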
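Further: ATP exposure 15 min at 22 °C before imaging.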

## TGGTGTGGTA
  switch fluorescence ratio: 0.989

## GGTTAAGAAG
  switch fluorescence ratio: 0.966

## AGGGAATCGC
  switch fluorescence ratio: 1.03

## CGATAACGTG
  switch fluorescence ratio: 0.971

## AATGAGTAGG
  switch fluorescence ratio: 0.967

## AATGGCAATC
  switch fluorescence ratio: 2.38

## ATAACCTTGC
  switch fluorescence ratio: 3.26

## TACTCTCGAC
  switch fluorescence ratio: 1.17

## ATCTCGGCCT
  switch fluorescence ratio: 1.03

## TACCAACGAT
  switch fluorescence ratio: 1.39

## GGGATAGGAC
  switch fluorescence ratio: 1.02

## AAACTAGAAT
  switch fluorescence ratio: 1.02

## TATAGGTG
  switch fluorescence ratio: 1.22

## GTTAACCATC
  switch fluorescence ratio: 0.956

## ACCCATCCGT
  switch fluorescence ratio: 1.19

## TGCCCTCTAA
  switch fluorescence ratio: 1.04

## ACAAATTAGG
  switch fluorescence ratio: 1.01

## TTCTCGGTTG
  switch fluorescence ratio: 1.02

## TCTAAGGTCA
  switch fluorescence ratio: 1.1

## GCCCAGGCTT
  switch fluorescence ratio: 1.06

## ATCGGTTGGG
  switch fluorescence ratio: 1

## GTTTATCCAG
  switch fluorescence ratio: 0.996

## TACAAAACGG
  switch fluorescence ratio: 1.03

## TAATTGTCC
  switch fluorescence ratio: 1.01

## CTCTGCGCTA
  switch fluorescence ratio: 3.79

## AACTACTGTT
  switch fluorescence ratio: 1.02

## GAGTCTAACC
  switch fluorescence ratio: 1.04

## CCAGTGGAGA
  switch fluorescence ratio: 1.04

## TACACTGCAG
  switch fluorescence ratio: 1.02

## TTAGCCAAGT
  switch fluorescence ratio: 0.969

## GCGCCTGCGA
  switch fluorescence ratio: 1.02

## TTCGCTTCCG
  switch fluorescence ratio: 1.09

## AGCGATCTCA
  switch fluorescence ratio: 1.15

## CAAATGATGA
  switch fluorescence ratio: 0.98

## GGATTCAAGT
  switch fluorescence ratio: 1.03

## TAGTACCACG
  switch fluorescence ratio: 1.01

## GAGTCAAATT
  switch fluorescence ratio: 0.991

## GTGCAGTTGT
  switch fluorescence ratio: 0.959

## TATACTTTTC
  switch fluorescence ratio: 1.04

## TCGTGCCCAT
  switch fluorescence ratio: 1.02

## GTTAATCCAC
  switch fluorescence ratio: 1.03

## ACACCACTAT
  switch fluorescence ratio: 1.31

## TTCGTATTGC
  switch fluorescence ratio: 1.03

## GTAAGAGGTG
  switch fluorescence ratio: 1.14

## CTCTTCTAT
  switch fluorescence ratio: 0.997

## GTTTTGTGAG
  switch fluorescence ratio: 1.02

## GCAATAAAGG
  switch fluorescence ratio: 0.968

## TCCATAGTAA
  switch fluorescence ratio: 3.37

## GGAGTAGAGC
  switch fluorescence ratio: 1.11

## GAGCCTTAAT
  switch fluorescence ratio: 0.972

## GGGCGTATGA
  switch fluorescence ratio: 1.09

## GGTTAACGTT
  switch fluorescence ratio: 1

## AGGATGGGAC
  switch fluorescence ratio: 1.02

## TGTTGGACAG
  switch fluorescence ratio: 0.98

## GAGTTTTCCT
  switch fluorescence ratio: 1.07

## CAAAGAATCC
  switch fluorescence ratio: 1

## GCGATTATTC
  switch fluorescence ratio: 0.971

## TACCCGTGAT
  switch fluorescence ratio: 1.21

## AATATTACCC
  switch fluorescence ratio: 1.06

## TGAAGCCCCG
  switch fluorescence ratio: 0.998

## GGCGACGTGG
  switch fluorescence ratio: 1.01

## TATACCAGTA
  switch fluorescence ratio: 0.992

## GATTGCTAAT
  switch fluorescence ratio: 0.971

## GGACATGGGG
  switch fluorescence ratio: 1.01

## GTATTCATGG
  switch fluorescence ratio: 0.949

## AGGAAAGGAG
  switch fluorescence ratio: 0.995

## TTTGCGGGGA
  switch fluorescence ratio: 1.04

## GGCCTCACGA
  switch fluorescence ratio: 1.05

## GATACACTTT
  switch fluorescence ratio: 0.993

## TTGTAAAAAG
  switch fluorescence ratio: 1.04

## ACCCACGTAC
  switch fluorescence ratio: 2

## GGACAGCGTC
  switch fluorescence ratio: 0.971

## CTTGCGGCTG
  switch fluorescence ratio: 0.991

## GGGTCCTTGG
  switch fluorescence ratio: 0.995

## AGCGGGTAC
  switch fluorescence ratio: 1.23

## CTGGTTGCTA
  switch fluorescence ratio: 1.06

## CAGGGTGTCG
  switch fluorescence ratio: 1.04

## GGATGTGTAG
  switch fluorescence ratio: 0.949

## ATGAAGAAGT
  switch fluorescence ratio: 0.989

## CTGGACAAGC
  switch fluorescence ratio: 1.15

## ATCTTGGTAC
  switch fluorescence ratio: 0.995

## CTGTGTCATG
  switch fluorescence ratio: 0.94

## GAGTCCACCG
  switch fluorescence ratio: 0.955

## ACGTCTGGCA
  switch fluorescence ratio: 1.03

## GCAGTAAGGA
  switch fluorescence ratio: 1.02

## TATGCGATTC
  switch fluorescence ratio: 1.07

## CTTTACTGGT
  switch fluorescence ratio: 1.03

## CGACAGCCAG
  switch fluorescence ratio: 1.07

## CATGGTGCCT
  switch fluorescence ratio: 1.06

## CTAAGGACGA
  switch fluorescence ratio: 1.03

## AAGTGTCACT
  switch fluorescence ratio: 1.03

## TTGTATAAAA
  switch fluorescence ratio: 0.963

## TAAAACCAAA
  switch fluorescence ratio: 0.994

## AAGGTCCTGT
  switch fluorescence ratio: 0.956

## GTCTACGAGG
  switch fluorescence ratio: 0.968

## GACAACGTGA
  switch fluorescence ratio: 1.19

## TGTTCGAGTC
  switch fluorescence ratio: 1.04

## CGAGCTCAGT
  switch fluorescence ratio: 1.06

## CGGAACGTAG
  switch fluorescence ratio: 1.01

## TAGGGGGTG
  switch fluorescence ratio: 1

## AGGCGATTTG
  switch fluorescence ratio: 0.967

## GGAGGGTGT
  switch fluorescence ratio: 1.09

## AAGGTCTGG
  switch fluorescence ratio: 0.978

## CTGTAGAATA
  switch fluorescence ratio: 1.08

## ATGGCGAGG
  switch fluorescence ratio: 0.954

## CCGTTTCTG
  switch fluorescence ratio: 1.04

## TTGGTGTAGA
  switch fluorescence ratio: 1.07

## GCTCAGGCTA
  switch fluorescence ratio: 1.04

## AGTATGTTTA
  switch fluorescence ratio: 0.975

## AAGAATTTAA
  switch fluorescence ratio: 0.996

## GCTGCGGTCA
  switch fluorescence ratio: 1.06

## CCCTTGTGTT
  switch fluorescence ratio: 1.08

## TTAATAGGGT
  switch fluorescence ratio: 0.986

## CCTCAGCCAC
  switch fluorescence ratio: 2.87

## CTACTACCA
  switch fluorescence ratio: 1.14

## ATACTTAGGG
  switch fluorescence ratio: 1.08

## AGTAGGCGAA
  switch fluorescence ratio: 0.995

## GGATATAAAA
  switch fluorescence ratio: 1.01

## CAACGTACGA
  switch fluorescence ratio: 1.66

## TGATAGATCC
  switch fluorescence ratio: 1.01

## ACGGATAGGT
  switch fluorescence ratio: 1.02

## GGGTTATGA
  switch fluorescence ratio: 1.01

## TTATCGCACT
  switch fluorescence ratio: 1.12

## CAATTGGACC
  switch fluorescence ratio: 1.02

## TATGCCGTCA
  switch fluorescence ratio: 0.969

## CTAGAGAAGG
  switch fluorescence ratio: 0.984

## ATTTGCTGC
  switch fluorescence ratio: 1

## TCTTAAAAGT
  switch fluorescence ratio: 0.999

## GCTACAGACA
  switch fluorescence ratio: 1.08

## ACTATCAAAA
  switch fluorescence ratio: 0.941

## CCATGATGTC
  switch fluorescence ratio: 1.03

## TGATCGGGCC
  switch fluorescence ratio: 1.05

## CACAACACTT
  switch fluorescence ratio: 1.34

## AAGCGGTGTG
  switch fluorescence ratio: 0.946

## CTTCCTGTTT
  switch fluorescence ratio: 1.01

## GCAATATTGG
  switch fluorescence ratio: 1.06

## AATAGGGTAG
  switch fluorescence ratio: 1.03

## ATAGTCAGAA
  switch fluorescence ratio: 1

## TTATCAGAAC
  switch fluorescence ratio: 1.01

## GGGTCAAGAA
  switch fluorescence ratio: 0.983

## GCGACCCATG
  switch fluorescence ratio: 1.04

## GTTGGGAGAC
  switch fluorescence ratio: 0.987

## GGTCCCGACT
  switch fluorescence ratio: 1.02

## TCGTCCGGCC
  switch fluorescence ratio: 1.27

## AAGCTTCGGA
  switch fluorescence ratio: 0.931

## GATCTAAACT
  switch fluorescence ratio: 0.992

## GAGGTCAAAT
  switch fluorescence ratio: 0.95

## TATGACACAA
  switch fluorescence ratio: 1

## TTTAAAGCGT
  switch fluorescence ratio: 0.983

## CGCCAGGGGC
  switch fluorescence ratio: 1.17

## ACCCTGAAGT
  switch fluorescence ratio: 1.01

## GCGTATGGG
  switch fluorescence ratio: 1.03

## TCTAATGATA
  switch fluorescence ratio: 0.997

## GGTGCCTTAA
  switch fluorescence ratio: 0.991

## GATGTATTAG
  switch fluorescence ratio: 0.985

## CGGCGCCAAG
  switch fluorescence ratio: 1.01

## GTTCCTCGCC
  switch fluorescence ratio: 3.09

## CACGGTTTAG
  switch fluorescence ratio: 0.988

## TAGGAAGATA
  switch fluorescence ratio: 0.993

## TATGGCTGA
  switch fluorescence ratio: 1.01

## AAGCTACAGG
  switch fluorescence ratio: 1.09

## TACTCTGCCG
  switch fluorescence ratio: 1.18

## ACTACGATTT
  switch fluorescence ratio: 1.05

## CGCCTGGTTT
  switch fluorescence ratio: 1.02

## CCGAATTAGA
  switch fluorescence ratio: 1.11

## CGCACAAGGG
  switch fluorescence ratio: 1.13

## CTGATCCTTT
  switch fluorescence ratio: 1

## CCTGGATAGG
  switch fluorescence ratio: 0.958

## AACGCGCCAT
  switch fluorescence ratio: 0.999

## ATGCTTCAAC
  switch fluorescence ratio: 1

## CTTCGGCGAT
  switch fluorescence ratio: 1.99

## TAAAGCTTA
  switch fluorescence ratio: 1

## CAATTGGGTC
  switch fluorescence ratio: 1.02

## TAGCTTGCTA
  switch fluorescence ratio: 0.965

## GCCTGGAGGT
  switch fluorescence ratio: 1.02

## TATTTCTTAA
  switch fluorescence ratio: 0.988

## CTAAATTGGT
  switch fluorescence ratio: 0.998

## ACGTTAGTAG
  switch fluorescence ratio: 0.949

## GCTAGGAGAA
  switch fluorescence ratio: 0.97

## CATATGTTAT
  switch fluorescence ratio: 0.996

## CAGCCCGCCT
  switch fluorescence ratio: 1.02

## ATCTACCAAC
  switch fluorescence ratio: 1.15

## GGGGTGGTGA
  switch fluorescence ratio: 1.04

## GATTGGCGCT
  switch fluorescence ratio: 1.03

## AGAAGCATCC
  switch fluorescence ratio: 1.24

## AACCAGATGA
  switch fluorescence ratio: 1.06

## TGTATTAAA
  switch fluorescence ratio: 1.05

## ATGACCCTGC
  switch fluorescence ratio: 1.03

## GCATTCTGTG
  switch fluorescence ratio: 1

## GAAGTGGAAG
  switch fluorescence ratio: 0.984

## AACAATTATC
  switch fluorescence ratio: 1.03

## AGGGGTTACT
  switch fluorescence ratio: 1.05

## TGCGATCATG
  switch fluorescence ratio: 1.04

## TGCCGAAATT
  switch fluorescence ratio: 1.06

## CGGTGACCGG
  switch fluorescence ratio: 1

## CTAAGGGCTA
  switch fluorescence ratio: 1.04

## AACAAGTTCT
  switch fluorescence ratio: 0.982

## TGAAGCCGGG
  switch fluorescence ratio: 0.928

## TACTCTATTG
  switch fluorescence ratio: 1.07

## TTCGGCAAAT
  switch fluorescence ratio: 1.07
